Test: label from the status in PepcDB records

EEVFGVKKWECTVISNDNKATFIKELKLAIPEGEEVPFRAGGYIQIEAPPHTVAYKDFDIPKEYHEDWDKYNLWQYVSKVDEPILRAYSMASYPEEKGIIMLNVRIATPPPRVPDAPPGQMSSYIWSLKPGDKVTISGPFGEFFAKDTDAEMVFIGGGAGMAPMRSHIFDQLKRLNSKRKITFWYGARSKREMFYVEDFDQLAAEFPNFTWHVALSDPLPEDNWDGYTGFIHNVVYENHLKNHEAPEDCEFYMCGPPIMNQSVIKMLKDLGVEDENILLDDFGG
protein production: failed
